# Measured values: paper PMC6919601, “Identification of Plasmodium dipeptidyl aminopeptidase allosteric inhibitors by high throughput screening” (PLoS ONE, 2019)
# In all, about 110,000 compounds went through this assay and about 230 (0.21%) showed an effect of 50% or more. The list shows a part of the results.
# Biological target: DPAP1 (Plasmodium falciparum, UniProt Q8IIJ9)
# Test: primary screen, percent inhibition; read by cleavage of a fluorogenic dipeptide substrate; higher = more effect of the substance
# Set-up: species or system P. falciparum D10 trophozoite lysates; single well
# 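Also: 30 min substrate incubation versus DMSO and 10 µM JCP410 controls.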
# Sequence of DPAP1 (Q8IIJ9 whole entry, looked up): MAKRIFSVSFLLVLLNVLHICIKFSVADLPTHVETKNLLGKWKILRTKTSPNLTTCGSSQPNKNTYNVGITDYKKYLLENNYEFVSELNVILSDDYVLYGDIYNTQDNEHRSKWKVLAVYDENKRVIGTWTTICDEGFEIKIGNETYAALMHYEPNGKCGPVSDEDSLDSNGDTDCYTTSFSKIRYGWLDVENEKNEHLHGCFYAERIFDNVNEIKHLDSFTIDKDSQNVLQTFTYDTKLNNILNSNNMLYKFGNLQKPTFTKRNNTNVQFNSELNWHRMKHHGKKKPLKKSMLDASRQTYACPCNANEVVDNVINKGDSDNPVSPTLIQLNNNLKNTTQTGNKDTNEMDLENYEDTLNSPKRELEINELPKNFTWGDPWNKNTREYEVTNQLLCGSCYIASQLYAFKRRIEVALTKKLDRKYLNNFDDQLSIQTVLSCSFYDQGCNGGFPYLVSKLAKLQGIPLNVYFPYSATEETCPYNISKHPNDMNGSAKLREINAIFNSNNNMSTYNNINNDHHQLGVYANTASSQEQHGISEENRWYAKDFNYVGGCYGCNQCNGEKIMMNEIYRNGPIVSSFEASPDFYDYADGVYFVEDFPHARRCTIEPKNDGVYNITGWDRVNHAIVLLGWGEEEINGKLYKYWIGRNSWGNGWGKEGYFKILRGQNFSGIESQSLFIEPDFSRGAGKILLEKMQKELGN
row,SMILES,% Inhibition @ 10 uM
1,CS(=O)(=O)NC(c1ccccc1)c1ccccc1,-4.95%
2,CC(C(=O)NCc1ccco1)N1C(=O)c2ccccc2C1=O (stereo not drawn),-9.24%
3,O=C(CN1C(=O)S/C(=C/c2cccc(F)c2)C1=O)N1CCOCC1,0.206%
4,CN(C)CCN(C)Cc1ccc(C(F)(F)F)cc1,-1.22%
5,CCOC(=O)C1CCN(c2cnccn2)CC1,2.65%
6,COc1ccc(NC(=O)NCCN2Cc3ccccc3C2=O)cc1,-1.24%
7,COc1ccc(C(=O)Nc2sc3c(c2C(N)=O)CCCCC3)cc1OC,3.65%
8,COc1cc(/C=C/C(=O)c2c(O)cc(C)oc2=O)ccc1O,-2.18%
9,CC(C)(C)C1CCc2c(sc(NC(=O)c3cccc(Cl)c3)c2C(=O)NCCO)C1 (stereo not drawn),-2.24%
10,CCOc1cc(C=C(C#N)C#N)ccc1OCc1cc(=O)n2nc(CC)sc2n1,-2.19%
11,CN1CCCN(Cc2cccc(Br)c2)CC1,-0.127%
12,COC(=O)c1cc(S(=O)(=O)NCCc2ccc(OC)c(OC)c2)cn1C,3.92%
13,O=C(Cn1cnc2c(nnn2Cc2ccccc2F)c1=O)N1CCCCCC1,-3.94%
14,CCOC(=O)C1=CN(C(C)C)C=C(C(=O)OCC)C1c1ccc(O)c(OCC)c1,-6.93%
15,O=C(NCc1noc2ccccc12)Nc1nc2ccccc2s1,-5.57%
16,Cc1nc(Cl)c(C(=O)N2CCC(C)CC2)c(C)c1Cl,3.21%
17,CCSc1ncc(Cl)c(C(=O)Nc2nc(C)c(C(=O)OCC(C)C)s2)n1,-4.64%
18,O=C(NC(=O)c1ccc(Cl)cc1)OC1CCCCC1,1.86%
19,O=C1c2ccccc2-c2ncnc3c(Br)cc(Br)c1c23,-2.03%
20,Clc1cccc(-c2nc(N3CCCC3)nc3c2COc2ccccc2-3)c1,3.92%
21,CCCNC1=N/C(=C\c2ccccc2)C(=O)N1c1ccccc1,-3.39%
22,CCCCN(CCCC)CC(=O)Nc1c2c(nc3ccccc13)CCC2,-1.42%
23,COc1ccc2[nH]c(C)c(CCNC(=O)c3cc(S(=O)(=O)N(C)C)c(Cl)cc3Cl)c2c1,-4.35%
24,Cn1c2ccccc2c2cnn(CC(=O)N3CCN(Cc4ccccc4)CC3)c(=O)c21,-1.92%
25,CN1CCN(C(=S)NC(=O)c2ccc(Br)cc2)CC1,-8.99%
26,COC(=O)[C@@H]1CO[C@@H](C(=O)O[C@@H]2C[C@H](C)CC[C@H]2C(C)C)S1,2.65%

row,SMILES,% Inhibition @ 10 uM
1,O=C(Cc1ccccc1)NC1CCN(Cc2ccccc2)CC1,0.343%
2,CCc1ccc(-c2cc3c(=O)n(CC(=O)NCCC4=CCCCC4)nc(C)n3n2)cc1,-2.85%
3,CCc1ccc2ncc(C(=O)c3cccc(OC)c3)c(O)c2c1,-4.23%
4,O=C(C1CCCN(c2ncnc3c2nc2n3CCCCC2)C1)N1CC=C(c2ccccc2)CC1 (stereo not drawn),10.1%
5,CN1C2CCC1CC(N(CCc1ccccc1)C(=O)c1ccc(F)cc1)C2 (stereo not drawn),-4.3%
6,Cc1cc(C)cc(Oc2nc3ccccn3c(=O)c2/C=C(\C#N)C(=O)N2CCOCC2)c1,0.315%
7,CCOC(=O)c1c(C)nc(S)c(C#N)c1-c1ccccc1,57.1%
8,CSc1ccccc1NC(=O)c1cc2n(n1)C(C(F)(F)F)CC(c1ccc3c(c1)OCO3)N2 (stereo not drawn),-2.64%
9,CC(=O)Nc1ccc(S(=O)(=O)Nc2ccc(Br)c(Cl)c2)cc1,-4.7%
10,O=C(NCc1ccccc1)c1coc(-c2ccccc2)n1,-2.65%
11,Cc1ccc(Cn2nnc3c(=O)n(Cc4c(F)cccc4Cl)cnc32)cc1,-3.94%
12,CCN(CC)CCCNC(=O)c1cnn2c(C(F)(F)F)cc(-c3ccc(C)cc3)nc12,35.5%
13,N#Cc1nc(/C=C/c2ccc(F)cc2)oc1NC1CC1,-2.57%
14,COc1ccc(-c2c(C)nn3c(N4CCc5ccccc5C4)cc(C)nc23)cc1OC,-0.138%
15,CCC1CCCCN1Cc1nc2c(c(=O)n(C)c(=O)n2C)n1CCCO (stereo not drawn),-1.43%
16,NC(=O)C1CCN(Cc2cccc(Oc3ccccc3)c2)CC1,1.88%
17,Cc1ccc(/C=C(/C#N)C(=O)Nc2ccc(Cl)cc2)o1,-1.32%
18,CCCC1=Nc2ncnn2C(c2ccc(F)cc2)/C1=C(/O)OCC (stereo not drawn),1.76%
19,CCOc1ccc(CCNC(=O)c2oc3ccc4c(c3c2C)C(=O)CC(C)(C)O4)cc1OCC,1.52%
20,CCC(C)NC(=O)c1ccc2c(c1)sc1nc(-c3ccc(C)cc3)cn12 (stereo not drawn),-2.37%
21,CCn1cc(C2=NOC(C(=O)N3CCC(C)CC3)C2)c(C)n1 (stereo not drawn),-4.85%
22,CN(C1CCCCC1)S(=O)(=O)N1CCCC(C(=O)N2CCN(c3ccccn3)CC2)C1 (stereo not drawn),3.61%
23,Cc1cc(C)cc(NC=C2C(=O)CC(c3ccccc3)CC2=O)c1 (stereo not drawn),-0.105%
24,Nc1c(Cl)cc2c(c1Cl)C(=O)c1ccccc1C2=O,25.7%
25,O=C(O)c1ccc(N2C(=O)c3ccccc3C2=O)cc1Cl,-1.32%
